The values that follow come from PubChem BioAssay (NCI).

Values joined by “and” are separate entries in the source; they are usually repeats but may differ in a detail not shown here. Identical values can stand only once.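 In this assay, cells in 96-well plates receive the compound at five concentrations for 48 hours. Endpoints are linearly interpolated between the surrounding concentrations. GI50 marks 50% less growth. TGI denotes the concentration required for complete inhibition of growth.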

In the test the test system is NCI-H322M lung. Description: inhibition of tumour cell growth, NCI panel, 48 h.

Turning to `COc1ccc2c(c1)c(-c1ccc(-c3cn(C)c4ccc(OC)cc34)o1)cn2C`, the GI50 was > 100 µM and the TGI was > 100 µM.

Regarding `CSS(C)(=O)=O`, the TGI is > 100 µM.

Turning to `CCN(CC)CCC(=O)N1C/C(=C/c2ccccc2)C(=O)/C(=C\c2ccccc2)C1`, the TGI was 16 µM.

With `CCOc1cc(/C=C2\N=C(c3ccccc3)N(c3nc4ccccc4s3)C2=O)ccc1O`, the TGI was > 100 µM.

Take `CC(=O)OCCCCn1cnc2c(Cl)nc(Nc3ccccc3)nc21`: the TGI was > 100 µM.

Turning to `OCCCCCNc1ccnc2cc(Cl)ccc12`, the TGI is > 100 µM.

`CC(=O)OC1(C#N)CC2OC1C1N=NN(C(=O)OC(C)(C)C)C21` (centres undefined): the TGI is > 100 µM.

Regarding `CCC1(N)C(=O)OCc2c1cc1n(c2=O)Cc2cc3ccccc3nc2-1` (centres undefined), the GI50 is 21.6 µM and the TGI is > 100 µM.

With `COc1cccc(NC(=O)c2ccc(NC3=C(Cl)C(=O)N(Cc4ccccc4)C3=O)cc2)c1`, the GI50 is 23.9 µM and the TGI is 67.3 µM.

For `c1ccc(N2N=C3N(c4ccccc4)C2N3c2ccccc2)cc1`, the TGI is > 100 µM.

On to `FC(F)(F)C1(c2ccccc2)SCc2nc3ccccc3n21` (centres undefined), for which the TGI was > 100 µM.

For `O=C(Nc1ccc(-n2ccc3c(NC(=O)c4ccccc4)nccc32)cc1)c1ccc(N2CCOCC2)c(C(F)(F)F)c1`, the GI50 was 4.63 µM and the TGI was > 51.6 µM.

For the molecule `S=C(S)N1CCN(c2ccccc2)CC1`, the TGI was > 100 µM.

With `N/C(=N\N=C\c1ccc(O)c(O)c1)NO`, the TGI was > 100 µM.

Consider `C#CCOC(=O)[C@@H](C)c1ccc2cc(OC)ccc2c1`, for which the TGI is > 100 µM.

`Nc1nc(Cl)c(C=O)c(NCC2(CO)CCC2)n1` came in with a TGI of 61 µM.

With `COc1cc(OC2OC(CO)C(O)C(O)C2O)c2c(c1)O[C@@H]1[C@H](O)Oc3cc(OC)c(OC)cc3[C@]1(O)C2=O` (some centres undefined), the TGI is > 25 µM.

For the molecule `CCC(C)(C)NS(=O)(=O)c1ccccc1`, the TGI was > 100 µM.

Take `COC(=O)[C@]1(Cc2ccc3ccccc3c2)CCCCCCN1C(=O)c1ccccc1`: the TGI is > 61.5 µM.

On to `CS(=O)(=O)CCC(N)P(=O)(O)O` (centres undefined), for which the TGI was > 100 µM.

In the case of `O=C1/C(=C\c2cccc(Oc3ccccc3)c2)SC(c2ccccc2)N1c1cccc(Cl)c1` (centres undefined), the TGI was > 100 µM.

In the case of `NC(N)=NC(N)=Nc1ccc(S(N)(=O)=O)cc1`, the TGI is > 100 µM.

For the molecule `COc1cc2c3c(c1OC)C(=O)C(=O)C1=C3N(CCC1)CC2`, the TGI is > 100 µM.

Turning to `CN(C)c1c(C2CC(O)C(CO)O2)c(=O)c1=O` (centres undefined), the TGI is > 100 µM.

Take `CC(=Nc1ccccc1)C1=C(O)C(Cc2ccc(F)cc2)NC1=O` (centres undefined): the GI50 is 3.34 µM and the TGI was > 100 µM.

As to `COc1ccc2c(c1OC)C(C=C(c1ccccc1)c1ccccc1)CN(C)C2` (centres undefined), the TGI was > 100 µM.

`CCCCC(N)CSSCC(N)CCCC` (centres undefined): the TGI was > 100 µM.

In turn, `CN[C@H]1CC[C@]23C[C@]24CC[C@]2(C)[C@@H]([C@H](C)N(C)C)CC[C@@]2(C)[C@@H]4CC[C@H]3C1(C)C` gave a TGI of 39 µM.

On to `CCOC(=O)C1=C(C)N(C2OC(COC(C)=O)C(OC(C)=O)C(OC(C)=O)C2OC(C)=O)C(=O)NC1c1ccccc1` (centres undefined), for which the TGI was > 100 µM.

For `Cc1cc(C)c(O)c(CNCCCNCc2cc(C)cc(C)c2O)c1`, the GI50 is 2.43 µM and the TGI was 12.2 µM.

Consider `CN(C)C1C(=O)C(C(N)=O)=C(O)C2(O)C(=O)C3=C(O)c4c(O)cccc4C(C)(O)C3CC12` (centres undefined), for which the TGI is > 100 µM.

Regarding `[N-]=[N+]=NC1C2CC3CC(C2)CC1C3` (centres undefined), the TGI is > 100 µM.

For `COc1ccc(/C=C2/SC(c3c(O)ccc4ccccc34)N(NC(=O)CCCCCCCCC(=O)NN3C(=O)/C(=C\c4ccc(OC)c(OC)c4)SC3c3c(O)ccc4ccccc34)C2=O)cc1OC` (centres undefined), the TGI is > 63.4 µM.

Take `CCCCCCC(O)C(O)CCC(O)C1CCC(CCCCC(O)CC2=CC(C)OC2=O)O1` (centres undefined): the GI50 was 19.7 µM and the TGI was found to be 52.2 µM.

In turn, `COc1ncc(C#CC(=O)c2ccccc2)c(OC)n1` gave a TGI of 31.8 µM.

Turning to `CCSc1nc(C)nc2c1sc1nc3ccccc3n12`, the TGI is > 100 µM.

In the case of `C[C@@H]1OC(=O)NN=C1c1ccc(-c2ccc(F)cc2)c(C(F)(F)F)c1`, the GI50 is 15 µM and the TGI is 28.5 µM.

Regarding `COc1ccc(Br)c(C=Nc2cccc3cc(OC)c(OC)cc23)c1`, the TGI was > 100 µM.

Regarding `CC(=O)OCc1nnn2c1CCC2`, the TGI was > 100 µM.

In turn, `COc1ccc(C[C@H]2NC[C@H](O)[C@H]2OC(C)=O)cc1` showed a TGI of 0.38 µM.

Regarding `C[C@H]1[C@H](C)CC[C@]2(C(=O)OC3OC(CO)C(O)C(O)C3O)CC[C@]3(C)C(=CC[C@@H]4[C@@]5(C)C[C@@H](O)[C@@H]6OC(=O)c7cc(O)c(O)c(O)c7-c7c(cc(O)c(O)c7O)C(=O)OC[C@]6(CO)[C@@H]5CC[C@]43C)[C@H]12` (some centres undefined), the TGI was > 100 µM.

Consider `CC1(C)OC2COC(c3[nH]nc4c(=O)[nH]c(=O)[nH]c34)C2O1` (centres undefined), for which the TGI is > 100 µM.

Regarding `COc1ccc(-c2cc(-c3ccc(Cl)cc3)nc(SCCCCCCC(=O)NO)n2)cc1`, the GI50 is 1.78 µM and the TGI stood at 41.1 µM.

Take `CCOC(=O)NC(=O)c1cn(C2OC(COC(=O)CCCCCCCCC(=O)OCC3OC(n4cc(C(=O)NC(=O)OCC)c(=O)[nH]c4=O)C4OC(C)(C)OC34)C3OC(C)(C)OC32)c(=O)[nH]c1=O` (centres undefined): the TGI was > 100 µM.

Consider `CC1OC(OC2C[C@](O)(C(=O)CBr)Cc3c(O)c4c(c(O)c32)C(=O)c2ccccc2C4=O)C(F)C(O)C1O` (some centres undefined), for which the TGI is > 100 µM.

For `O=C1CSC(c2cccc(Oc3ccccc3)c2)N1c1cccc(Cl)c1Cl` (centres undefined), the TGI is > 100 µM.

Consider `Cc1ccc(NC(=S)N=Nc2c(O)[nH]c3ccccc23)cc1`, for which the TGI is > 100 µM.

As to `COc1cc2c(cc1OC)-c1ncc3cc(OC)c(OC)c(OC)c3c1C2`, the GI50 is 22.5 µM and the TGI is 93.7 µM.

Turning to `C=C(C1=CC(=O)C(C)(C)O1)[C@@H]1CC=C([C@@H]2CC[C@H]3[C@@]2(C)CC[C@H]2C(C)(C)C(=O)[C@H](OC(=O)CC(C)(O)CC(=O)O)C[C@]32C)[C@H](O)O1` (some centres undefined), the TGI is > 75 µM.

In the case of `CCCCCCCCCC[N+](C)(C)C`, the GI50 is 3.65 µM and the TGI is 15.4 µM.

As for `CC(C)=CCc1c(O)c(C(=O)CC(C)C)c(O)c2c(-c3ccccc3)cc(=O)oc12`, the GI50 is 10.6 µM and the TGI was > 50 µM.

For the molecule `O=P(O)(O)CC1OC(CO)C(O)C1O` (centres undefined), the TGI was > 100 µM.

Consider `CCCCCCCCCCCCC(NC(C)=O)(C(=O)OCC)C(=O)OCC`, for which the GI50 is 15.3 µM and the TGI was 31.4 µM.

On to `O=S(=O)(NCCNc1cc(-c2cn(-c3ccccc3)nc2-c2cccc(O)c2)ccn1)c1ccc(Br)cc1`, for which the GI50 was 3.29 µM and the TGI came to 30.3 µM.

For `COc1ccc2c(c1)C(=O)[C@@](Nc1ccc(C=O)cc1)(OC)[C@@](OC)(c1ccc([N+](=O)[O-])cc1)O2`, the TGI was > 10 µM.

As for `O=C(O)CNC(=O)C1NC(C(F)(F)F)(C(F)(F)F)OC1(C(F)(F)F)C(F)(F)F` (centres undefined), the TGI is > 100 µM.

Consider `Clc1nc(-c2ccccc2)nc(Cl)c1Cl`, for which the TGI worked out at 27.4 µM.

Regarding `S=C1SCN(C2CCCCCCCCCCC2)CN1C1CCCCCCCCCCC1`, the TGI was > 100 µM.

With `CC(C)(C)OC(=O)N1CCC(NC(=O)NC2CCN(C(=O)OC(C)(C)C)CC2)CC1`, the TGI was > 100 µM.

Take `Cc1ccc2c(=O)c(C(=O)NNC(=S)NC3CCCCC3)c[nH]c2n1`: the TGI was > 100 µM.

On to `CC(C)C[C@H](NC(=O)CCc1cccc2ccccc12)B(O)O`, for which the TGI is > 100 µM.

In the case of `CCOC(=O)c1csc(-c2nc(CCNC(=O)c3ccccc3)sc2Cl)n1`, the TGI is > 100 µM.

In the case of `O=C(Nc1ccc(N2CCNCC2)cn1)c1[nH]ncc1Nc1ncnc2sccc12`, the GI50 is 3.02 µM and the TGI was 14.3 µM.

For the molecule `Cc1c(C#N)c(N)n(C2OC(CO)C(O)C(O)C2O)c(=S)c1C#N` (centres undefined), the TGI is > 100 µM.

For `COc1c(Cl)[c]([Hg][O]C(C)=O)c(NCC(C)=O)c(OC)[c]1[Hg][O]C(C)=O`, the GI50 was 21.1 µM and the TGI was found to be 52.5 µM.

As for `O=C(Nc1nccs1)NS(=O)(=O)n1cnc2ccccc21`, the TGI was > 100 µM.

In the case of `C=CCOC1OC(CS(=O)(=O)O)C(OC(C)=O)C(OC(C)=O)C1OC(C)=O` (centres undefined), the TGI is > 100 µM.

For the molecule `NS(=O)(=O)c1ccc(N2C(=O)C(=O)N(c3ccccc3)C2=S)cc1`, the TGI was > 100 µM.

Regarding `COc1cc2ccc3c4cc(OC)c(OC(C)C)cc4c[n+](C)c3c2cc1OC`, the TGI is > 100 µM.

In the case of `COc1ccc(C(=O)c2cc(C)c(OC)c(C)c2)c(OC)c1N(C(=O)CCl)C(=O)CCl`, the GI50 was 0.0694 µM and the TGI is > 100 µM.

`Cc1nc(-n2nc(-c3ccccc3)cc2-c2ccccc2)sc1C(=O)/C=C/c1ccc(Cl)cc1` came in with a TGI of 45.3 µM.

`CC1(C)Oc2ccccc2[N+]([O-])=C1c1ccccc1`: the TGI was > 100 µM.

Regarding `C=C(C)[C@@H]1CC[C@]2(CN)CC[C@]3(C)[C@H](CC[C@@H]4[C@@]5(C)CCC(N)[C@@](C)(CO)[C@@H]5CC[C@]43C)[C@@H]12` (some centres undefined), the GI50 was 1.79 µM and the TGI turned out to be 3.2 µM.

Regarding `COc1ccc(-c2nc(SC)n(C3OC(COC(C)=O)C(OC(C)=O)C(OC(C)=O)C3OC(C)=O)c(=O)c2C#N)cc1` (centres undefined), the TGI is > 100 µM.

Take `O=C1CN(c2ccccc2)C(=O)CN1CCN1CC(=O)N(c2ccccc2)CC1=O`: the TGI was > 100 µM.

For `CC(c1ccccc1)C(O)S(=O)(=O)O` (centres undefined), the TGI is > 100 µM.

In the case of `CC1=CC(=O)/C(=C/N2C(=O)CNC2=S)C(=O)O1`, the TGI is > 100 µM.

Take `C#CCN(Cc1nc2cc(C(F)(F)F)ccc2nc1-c1ccccc1)c1ccc(F)cc1`: the GI50 was 17.1 µM and the TGI was 57.5 µM.

Consider `OC[C@@H](O)[C@H](O)[C@@H](O)/C=N/Nc1ccc(Cl)nn1`, for which the TGI is > 100 µM.

For `C[C@H](CO)C1=CC(C#C[Si](C)(C)C)N(C(=O)Oc2ccccc2)c2ccccc21` (some centres undefined), the TGI came to 29.7 µM.

As to `CCCCCCC(=O)c1ccc2ccccc2c1O`, the TGI is > 100 µM.

For `O=C(NNC(=O)c1c(Cl)c(Cl)c(Cl)c(Cl)c1-c1nc2ccccc2[nH]1)c1ccc(Cl)cc1`, the TGI is > 100 µM.

As to `Clc1ccc(COC(Cn2ccnc2)c2ccc(Cl)cc2Cl)c(Cl)c1` (centres undefined), the TGI was 26.1 µM and 22.5 µM.

Consider `COC(=O)[C@H](Cc1cn(C)cn1)NC(=O)[C@@H](NC(=O)Nc1cc(C(F)(F)F)cc(C(F)(F)F)c1)C(C)(C)C`, for which the GI50 is > 10 µM and the TGI was > 10 µM.
